T1: 重组人IL-6R (human, UniProt P08887 20-365, limits assumed)
T1 construct: Coated on ELISA plates; also called recombinant human IL-6R; hIL-6R
T1 sequence (looked up): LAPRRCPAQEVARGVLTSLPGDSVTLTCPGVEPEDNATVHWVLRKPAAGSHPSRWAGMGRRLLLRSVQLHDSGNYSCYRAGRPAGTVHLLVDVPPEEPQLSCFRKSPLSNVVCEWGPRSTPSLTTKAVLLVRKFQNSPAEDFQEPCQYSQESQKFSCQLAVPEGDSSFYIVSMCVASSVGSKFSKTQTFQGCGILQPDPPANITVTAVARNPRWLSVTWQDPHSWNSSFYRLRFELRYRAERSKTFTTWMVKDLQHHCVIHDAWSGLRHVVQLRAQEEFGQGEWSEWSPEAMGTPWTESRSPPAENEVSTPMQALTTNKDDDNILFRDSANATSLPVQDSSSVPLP

T2: 重组人VEGF-B 167 (human, UniProt P49765-2 22-188)
T2 construct: Coated on ELISA plates; also called recombinant human VEGF-B167
T2 sequence (looked up): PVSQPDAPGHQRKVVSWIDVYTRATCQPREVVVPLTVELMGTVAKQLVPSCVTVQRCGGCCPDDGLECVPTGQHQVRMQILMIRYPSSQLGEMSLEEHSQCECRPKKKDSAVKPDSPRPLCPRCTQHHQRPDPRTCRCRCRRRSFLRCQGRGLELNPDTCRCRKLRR

T3: 重组人VEGF-A 165 (human, UniProt P15692-4 27-191)
T3 construct: Coated on ELISA plates; also used in solution in the VEGFR2 reporter assay; also called recombinant human VEGF-A165
T3 sequence (looked up): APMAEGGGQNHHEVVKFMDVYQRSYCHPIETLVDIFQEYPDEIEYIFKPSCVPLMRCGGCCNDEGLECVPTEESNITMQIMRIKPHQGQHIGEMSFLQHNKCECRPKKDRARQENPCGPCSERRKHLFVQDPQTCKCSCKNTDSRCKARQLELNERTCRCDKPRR

B1: EB-vvA (Fc fusion)
chain: DIQMTQSPSSLSASVGDRVTITCRASQDISSYLNWYQQKPGKAPKLLIYYTSRLHSGVPSRFSGSGSGTDFTFTISSLQPEDIATYYCQQGNTLPYTFGQGTKVEIKRGGGGSGGGGSGGGGSQVQLQESGPGLVRPSQTLSLTCTVSGYSITSDHAWSWVRQPPGRGLEWIGYISYSGITTYNPSLKSRVTMLRDTSKNQFSLRLSSVTAADTAVYYCARSLARTTAMDYWGQGSLVTVSS[letters of human IgG1 Fc not shown]GSGGGSGGGGSGGGGGSGGGGSDTGRPFVEMYSEIPEIIHMTEGRELVIPCRVTSPNITVTLKKFPLDTLIPDGKRIIWDSRKGFIISNATYKEIGLLTCEATVNGHLYKTNYLTHRQTNTIIDVVLSPSHGIELSVGEKLVLNCTARTELNVGIDFNWEYPSSKHQHKKLVNRDLKTQSGSEMKKFLSTLTIDGVTRSDQGLYTCAASSGLMTKKNSTFVRVHEK
notes: Dimer of IL-6R scFv - IgG1 Fc - flexible linker (other length than in EB-DJ1) - VEGFR-1-D2-VEGFR-2-D3
B2: EB-DJ1 (Fc fusion)
chain: DIQMTQSPSSLSASVGDRVTITCRASQDISSYLNWYQQKPGKAPKLLIYYTSRLHSGVPSRFSGSGSGTDFTFTISSLQPEDIATYYCQQGNTLPYTFGQGTKVEIKRGGGGSGGGGSGGGGSQVQLQESGPGLVRPSQTLSLTCTVSGYSITSDHAWSWVRQPPGRGLEWIGYISYSGITTYNPSLKSRVTMLRDTSKNQFSLRLSSVTAADTAVYYCARSLARTTAMDYWGQGSLVTVSS[letters of human IgG1 Fc not shown]GSGGGGSGGGSDTGRPFVEMYSEIPEIIHMTEGRELVIPCRVTSPNITVTLKKFPLDTLIPDGKRIIWDSRKGFIISNATYKEIGLLTCEATVNGHLYKTNYLTHRQTNTIIDVVLSPSHGIELSVGEKLVLNCTARTELNVGIDFNWEYPSSKHQHKKLVNRDLKTQSGSEMKKFLSTLTIDGVTRSDQGLYTCAASSGLMTKKNSTFVRVHEK
notes: Dimer of IL-6R scFv - IgG1 Fc - flexible linker - VEGFR-1-D2-VEGFR-2-D3
B3: EB-vvC (Fc fusion)
chain: SDTGRPFVEMYSEIPEIIHMTEGRELVIPCRVTSPNITVTLKKFPLDTLIPDGKRIIWDSRKGFIISNATYKEIGLLTCEATVNGHLYKTNYLTHRQTNTIIDVVLSPSHGIELSVGEKLVLNCTARTELNVGIDFNWEYPSSKHQHKKLVNRDLKTQSGSEMKKFLSTLTIDGVTRSDQGLYTCAASSGLMTKKNSTFVRVHEK[letters of human IgG1 Fc not shown]GSGGGSGGGGSGGGGGSGGGGDIQMTQSPSSLSASVGDRVTITCRASQDISSYLNWYQQKPGKAPKLLIYYTSRLHSGVPSRFSGSGSGTDFTFTISSLQPEDIATYYCQQGNTLPYTFGQGTKVEIKRGGGGSGGGGSGGGGSQVQLQESGPGLVRPSQTLSLTCTVSGYSITSDHAWSWVRQPPGRGLEWIGYISYSGITTYNPSLKSRVTMLRDTSKNQFSLRLSSVTAADTAVYYCARSLARTTAMDYWGQGSLVTVSS
notes: Dimer of VEGFR-1-D2-VEGFR-2-D3 - IgG1 Fc - flexible linker - IL-6R scFv

molecular target: T1, 重组人IL-6R; assay: ELISA, plate coated with recombinant human IL-6R, anti-human IgG1-Fc-HRP, OD450

| binding result | Binder |
| --- | --- |
| binds | B1 |
| binds | B2 |
| binds | B3 |

molecular target: T2, 重组人VEGF-B 167; assay: ELISA, plate coated with recombinant human VEGF-B167, anti-human IgG1-Fc-HRP, OD450

| binding result | Binder |
| --- | --- |
| binds | B1 |
| binds | B2 |
| binds | B3 |

molecular target: T3, 重组人VEGF-A 165; assay: ELISA, plate coated with recombinant human VEGF-A165, anti-human IgG1-Fc-HRP, OD450

| binding result | Binder |
| --- | --- |
| binds | B1 |
| binds | B2 |
| binds | B3 |

Source: CN116897165A (dated 2023)
